Results: ChEMBL document CHEMBL4888484, “Replenishing the malaria drug discovery pipeline: Screening and hit evaluation of the MMV Hit Generation Library 1 (HGL1) against asexual blood stage Plasmodium falciparum ,using a nano luciferase reporter read-out” (2022)
The whole screen tested about 4,800 compounds, of which about 420 (8.8%) showed an effect of 50% or more. The list shows a part of the results.

test system: Plasmodium falciparum; test: Confirmatory screen in NF54 nanoGlo assay, in single point, at 2uM, 72h; type: functional, Erythrocyte; settings: timepoint 72 hour

SMILES	% Inhibition [%]
Cn1c(=O)c2sc(N3CCCC3)nc2n(CC(=O)NC2CCCC2)c1=O	-2
c1ccc(-c2ccc(-n3nnnc3-c3ccccc3)cc2)cc1	-14
COCCN(CC1CN(Cc2ccsc2)CC1c1cccc(F)c1)C(=O)C(C)C (centres undefined)	2
O=C1N[C@@H](CC(=O)N2CCN(c3ccccn3)CC2)C(O)=Nc2ccccc21	-1
O=C(NCc1noc2c1CCCC2)NC[C@H]1CCCC1(F)F	-4
O=C(N[C@@H](Cc1ccccc1)C(=O)NC1CC1)c1cccnc1	6
COCCN(CC1CN(Cc2ccc(C)o2)CC1c1cccc(F)c1)C(=O)C(C)C (centres undefined)	-1
CN(C)CCCNCc1ccccc1F	-2
COc1ccc(-c2nn3c(N4CCN(CC=Cc5ccccc5)CC4)cc(C)nc3c2C)cc1OC	55
c1cnc2nc(-c3ccc4c(c3)OCO4)cn2c1	-4
O=S1(=O)c2ccccc2N=NN1Cc1ccc(Cl)cc1	-20
CN(C)c1ccc2cc(NC(=O)CCc3cnn(C)c3)ccc2c1	-5
O=C(CCc1nc2ccccc2c(=O)[nH]1)Nc1ccc(-n2cnnn2)cc1	3
CN1CCN(c2nc(O)c3c(n2)NC(=O)C[C@H]3c2c(F)cccc2Cl)CC1	-6
Cc1cc(N2C(=O)CCS2(=O)=O)ccc1S(=O)(=O)NC1CCCC1	7
Nc1cc(Br)c(C(F)(F)F)cc1NC(=O)C(F)(F)F	-11
Cc1cccc(NC(=O)CCC(=O)OCC(F)(F)C(F)F)c1C	-8
O=c1sc2c(n1Cc1csc(C3CCCCC3)n1)CCCC2	1
CCc1nc(C)ncc1C(=O)OCc1nccn1Cc1ccccc1	7
Cc1ccc(N2C(=O)CN(CC(C)C)[C@H]3CS(=O)(=O)C[C@H]32)cc1	6
Cc1cccc2[nH]cc(CCNC(=O)N3CCC4CCC(C3)N4C)c12 (centres undefined)	8
CC(C)c1ncsc1C(=O)NC(C)(C)C(=O)NCC1CCCC1	-13
COc1ccnc(CN2CCC[C@H](c3nc(-c4ccccc4)c[nH]3)C2)c1OC	67
COc1ccccc1CC(=O)N(c1nc(C)cs1)C1CC1	-9
O=S1(=O)C[C@H](N2CCN(c3ccccc3F)CC2)[C@@H](S(=O)(=O)c2ccccc2)C1	-7
CCc1nnsc1C(=O)NC1CCCCCC1	0
CC(C)c1nc(C(=O)Nc2[nH]c(=O)ncc2F)cs1	92
Cn1ccnc1C1CC(NC(=O)c2cc3c(s2)CCC3)CCO1 (centres undefined)	0
O=c1[nH]c2nccnc2c(=O)n1Cc1ccc(F)cc1	-11
